According to PubChem BioAssay AID1476 (National Center for Advancing Translational Sciences (NCATS), 2009):
Screen size: about 200,000 compounds; about 4,500 (2.2%) were called active. This list was built around the results that the source calls inconclusive (neither active nor inactive); the mix of calls is not that of the screen. Calls follow the shape of the dose curve; as a rule, active = well fitted inhibition curve with a large enough effect; inconclusive = small, poorly fitted or top-dose-only effect, or effect the other way; inactive = flat fitted curve, though single readings scatter. Potencies beside an inconclusive call are fits to weak or partial responses and may not hold up.

What follows are molecules tested against Cruzipain (Trypanosoma cruzi) (UniProt P25779) (assay: qHTS Assay for Promiscuous and Specific Inhibitors of Cruzain (without detergent)). Settings: purified cruzain, Z-FR-AMC fluorescence, no detergent.
Sequence of UniProt P25779 (P25779 whole entry, looked up): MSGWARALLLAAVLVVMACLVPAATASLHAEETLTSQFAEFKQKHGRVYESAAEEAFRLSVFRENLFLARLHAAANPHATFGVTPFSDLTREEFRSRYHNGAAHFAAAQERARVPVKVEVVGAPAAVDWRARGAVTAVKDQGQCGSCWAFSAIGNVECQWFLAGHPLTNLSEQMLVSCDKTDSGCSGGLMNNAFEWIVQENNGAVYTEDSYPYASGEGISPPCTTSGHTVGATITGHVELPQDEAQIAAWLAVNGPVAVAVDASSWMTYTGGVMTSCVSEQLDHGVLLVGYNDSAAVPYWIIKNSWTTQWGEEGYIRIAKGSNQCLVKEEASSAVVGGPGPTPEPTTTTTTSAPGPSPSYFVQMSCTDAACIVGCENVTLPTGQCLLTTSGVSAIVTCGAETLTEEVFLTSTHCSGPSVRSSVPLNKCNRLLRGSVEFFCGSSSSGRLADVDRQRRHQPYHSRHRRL
Method in brief: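 Purified cruzain at 1.5 nM, pre-incubated 15 min with compound at room temperature in 100 mM sodium acetate pH 5.5, 5 mM DTT, 0.00005% Triton X-100. Reaction started with 2 uM Z-FR-AMC; AMC fluorescence increase over 60 s gives rate.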
Also: nearly all actives have a fitted effect of over 40% in size.
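For max response, negative = inhibition in this document: plate controls were enzyme without inhibitor for no effect and buffer without enzyme for full effect.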
Potency is read from the fitted curve at half-maximal effect; tags tell the direction and shape of the fitted curve.

Row | Structure (SMILES) | max response, negative = inhibition | Potency
1 | O=C(Cn1c(SCCOc2ccccc2Cl)nc2ccccc21)N1CCCCC1 | inactive: -5.44% | –
2 | COC(=O)C1OC(=O)C2O[C@@]23[C@]2(C)C(OC(C)=O)CC4C(C)(C)C(=O)CC[C@]4(C)C2CC[C@@]13C (stereo partly drawn) | – | inconclusive: 39.8 µM [activator, single point]
3 | COc1cccc(-c2nnc3n2N=C(c2cc(OC)ccc2OC)CS3)c1 | – | inconclusive: 31.6 µM [activator, single point]
4 | N#Cc1c(-c2ccc(Cl)cc2)ccn2nc(C3CCCCC3)nc12 | – | inconclusive: 39.8 µM [inhibitor, single point]
5 | COc1cc(/C=C(\C#N)c2nc3ccccc3[nH]2)c([N+](=O)[O-])cc1OCc1ccccc1 | – | active: 31.6 µM
6 | CCC(=O)Nc1ccccc1-c1nc2ccccc2n(CC(=O)c2ccc(Br)cc2)c1=O | inactive: -15% | –
7 | C/C(=N\Nc1cccc(Cl)c1)c1ccc(-n2ccnc2)cc1 | – | inconclusive: 39.8 µM [inhibitor, single point]
8 | CC1=C(C(=O)Nc2cccc(C(F)(F)F)c2)C(c2ccccn2)n2ncnc2N1 (stereo not drawn) | inactive: 12.5% | –
9 | O=C(COC(=O)c1ccc(S(=O)(=O)N2CCCC2)cc1)NCc1ccc(Cl)cc1 | – | inconclusive: 39.8 µM [inhibitor, single point]
10 | Cn1cc(SCC(=O)Nc2nc3ccccc3s2)c2ccccc21 | – | inconclusive: 39.8 µM [inhibitor, single point]
11 | CCCCN(C(=O)CSc1nnc(-c2ccc(OC)cc2)n1CC)c1c(N)n(Cc2ccccc2)c(=O)[nH]c1=O | – | inconclusive: 10 µM [activator, partial curve]
12 | CCOC(=O)c1cccc(NC(=O)NCc2ccc3c(c2)CCN3C(=O)CC)c1 | – | inconclusive: 39.8 µM [activator, single point]
13 | Cc1nc(-c2ccc(F)cc2)sc1CCNC(=O)C(=O)Nc1ccc2c(c1)OCO2 | inactive: -2.41% | –
14 | CCOC(=O)c1sc(NC(=O)CSc2nc3c(c(=O)n2-c2ccc(F)cc2)SCC3)c(C(=O)OCC)c1C | – | active: 25.1 µM
15 | Cc1ccc(S(=O)(=O)N2CCCc3cc(NC(=O)c4ccc(C(C)(C)C)cc4)ccc32)cc1 | – | active: 3.16 µM
16 | CN1CCN(C(=O)c2cc3c(ccc4ccccc43)oc2=O)CC1 | – | inconclusive: 39.8 µM [inhibitor, single point]
17 | CCn1c(COc2ccccc2C)nnc1SCC(=O)N1CCN(c2ccccc2)CC1 | – | inconclusive: 39.8 µM [activator, single point]
18 | O=C(Nc1ccc2ccccc2c1)[C@H]1C[C@@H]1[C@H](NP(=O)(c1ccccc1)c1ccccc1)c1ccccc1 | – | inconclusive: 39.8 µM [inhibitor, single point]
